From the supplement of paper PMC9433436
± gives the standard deviation of the averaged measurements. Over roughly 4,100 sequences, “relative kcat/Km (krel) vs genomic leader AAAGAU” has its median near 1.7; the highest 2% begin near 6.5. This is a selection; strong and weak results do not stand in their true shares.

Biological target: T1, E. coli RNase P holoenzyme (M1 P RNA + rnpA protein) (UniProt P0A7Y8)
T1 sequence: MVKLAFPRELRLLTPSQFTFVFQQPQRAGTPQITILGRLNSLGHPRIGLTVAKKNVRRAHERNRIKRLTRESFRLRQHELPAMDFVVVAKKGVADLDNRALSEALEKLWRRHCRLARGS
Test: relative kcat/Km (krel) vs genomic leader AAAGAU (relative (reference leader = 1)); higher = faster RNase P cleavage
Description: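 HTS-Kin: a pool of ptRNA-Met (21C construct) with all 4096 combinations of 5' leader nucleotides N(-6) to N(-1) was processed in vitro by E. coli RNase P (P RNA + rnpA/C5 protein) under multiple-turnover conditions at 37 C, pH 8, 17.5 mM MgCl2. Residual substrate was Illumina-sequenced at several fractions reacted, and relative kcat/Km (krel) was computed by internal competition kinetics, calibrated to the genomic leader (AAAGAU = 1). The listed hexamer is the varied N(-6)..N(-1) leader (DNA letters), and it sits between a fixed 5' stem-loop flank (GCAUGCACGAAAGUGCGUGCUAUGAA) and the mature tRNA-Met starting GGCUACGUAGCUCAGUUGG. Two technical replicates are averaged.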

[1] = fraction of substrate reacted: ~9-10% (9.79% repeat 1, 9.1% repeat 2)
[2] = fraction of substrate reacted: ~13-16% (15.68% repeat 1, 13.17% repeat 2)
[3] = fraction of substrate reacted: ~26-29% (28.66% repeat 1, 26.4% repeat 2)

Sequence | relative kcat/Km [1] | relative kcat/Km [2] | relative kcat/Km [3]
TAAACT | 1.46 ± 1 | 1.02 ± 0.1 | 1.67 ± 0.7
CTACAC | 2.87 ± 1.7 | 3 ± 0.59 | 4.74 ± 1.4
AGAAAG | 1.38 ± 1.3 | 1.14 ± 0.7 | 2.2 ± 0.47
GCGTGG | – | – | 0.939 ± 0.64
ATATTG | – | 0.335 ± 0.075 | 1.66 ± 0.11
TCTGCA | 1.56 ± 1.2 | 1.61 ± 0.14 | 2.27 ± 0.57
CATAGA | 2.55 ± 0.11 | 3.96 ± 1.3 | 5.03 ± 2.4
TACCGA | 2.83 ± 0.7 | 4.89 ± 1.1 | –
GTGTAT | 2.27 ± 0.1 | 2.36 ± 0.42 | 3.07 ± 1.1
CGAGCC | 1.44 ± 0.36 | 1.17 ± 0.82 | 1.77 ± 0.032
GATCGC | 2.14 ± 0.16 | 2.81 ± 0.81 | 4.01 ± 1.8
CGAAGT | – | – | 1.2 ± 0.67
GGAATT | 1.51 ± 0.21 | 1.6 ± 0.24 | 2.16 ± 1
CAATTC | 1.87 ± 0.93 | 1.98 ± 0.16 | 2.4 ± 0.83
TGGGGT | – | – | 1.83 ± 0.45
GGTCCT | 1.77 ± 0.79 | 1.83 ± 0.89 | 2.22 ± 0.74
TCTCCT | 2.25 ± 0.95 | 1.9 ± 0.053 | 2.5 ± 0.3
GACGTC | 2.13 ± 1 | 2.6 ± 1.1 | 3.4 ± 1.2
AAAATC | 2.07 ± 0.94 | 1.14 ± 0.28 | 1.37 ± 0.15
AAGGCA | – | 1.05 ± 0.51 | 0.678 ± 0.092
AGCTTT | 2.79 ± 1.2 | 2.71 ± 0.49 | 4.09 ± 1.6
CCCCTT | 2.65 ± 0.41 | 2.88 ± 0.43 | 3.36 ± 1.2
GCTGTT | 1.12 ± 0.26 | – | 0.627 ± 0.24
TTACAC | 4.14 ± 1.9 | 4.92 ± 0.61 | 6.4 ± 2.5
ATATGA | 2.93 ± 0.85 | 3.32 ± 0.72 | 5.34 ± 1.6
CTCCGT | – | 1.79 ± 1.2 | 2.01 ± 1.7

Sequence | relative kcat/Km [1] | relative kcat/Km [2] | relative kcat/Km [3]
CGTAAC | 2.79 ± 0.54 | 4.08 ± 1.1 | 5.46 ± 2.1
GCACCG | 0.695 ± 0.23 | – | 0.963 ± 0.12
ACTGTA | 1.45 ± 0.27 | 1.29 ± 0.12 | 1.12 ± 0.057
ACGTGC | 1.66 ± 0.76 | 1.41 ± 1.2 | 2.28 ± 1.5
TAGCCT | 1.54 ± 0.86 | 1.95 ± 0.32 | 2.55 ± 0.89
GACTTC | 3.65 ± 0.53 | 4.38 ± 2.1 | 6.22 ± 3.3
GCTACC | 1.6 ± 0.53 | 1.34 ± 0.49 | 2.31 ± 0.92
GCTTTA | 1.33 ± 0.25 | 1.52 ± 0.15 | 1.68 ± 0.49
GTAACA | 1.33 ± 0.56 | 1.4 ± 0.41 | 1.99 ± 1.2
TGTTTC | 2.54 ± 0.42 | 3.17 ± 0.83 | 4.55 ± 1.5
CTCTTG | 2.31 ± 1.9 | 1.64 ± 0.35 | 3.11 ± 0.5
AATTCG | – | 0.511 ± 0.23 | 1.23 ± 0.13
GGGAGG | – | 0.486 ± 0.34 | 1.63 ± 0.17
GCTTCT | 2.03 ± 0.7 | 1.955 ± 0.018 | 2.42 ± 0.6
GCTATA | 1.48 ± 0.45 | 1.55 ± 0.19 | 2.16 ± 0.77
TCGTCA | 2.78 ± 1.8 | 2.51 ± 0.12 | 3.63 ± 1.3
GTTTAC | 3.75 ± 0.76 | 4.65 ± 0.88 | 7.14 ± 3
ATAAAA | 1.66 ± 0.62 | 1.91 ± 0.26 | 2.9 ± 1.3
AATCTA | 1.56 ± 0.87 | 1.78 ± 0.38 | 1.87 ± 0.29
GAACGG | 0.335 ± 0.15 | – | 0.467 ± 0.29
AGCCCC | 2.38 ± 0.6 | 2.27 ± 0.35 | 2.49 ± 0.43
TAGCAC | 2.83 ± 0.95 | 2.84 ± 1.8 | 4.7 ± 2.2
CCTAGG | – | – | 0.794 ± 0.77
CTGGTT | 0.626 ± 0.35 | – | 0.983 ± 0.93
GGCTAC | 1.69 ± 1.4 | 1.98 ± 0.51 | 2.81 ± 1.3
GGTCAA | 0.981 ± 0.11 | 1.45 ± 0.14 | 1.83 ± 1.1

Sequence | relative kcat/Km [1] | relative kcat/Km [2] | relative kcat/Km [3]
CTGCAC | 1.99 ± 0.74 | 1.73 ± 0.084 | 2.55 ± 1
GTTACC | 1.71 ± 0.9 | 1.91 ± 0.26 | 2.36 ± 0.55
GTACCC | 1.91 ± 0.18 | 2.21 ± 0.48 | 2.18 ± 1.1
AGGTTA | 1.53 ± 1 | 0.998 ± 0.84 | 1.39 ± 0.61
TCTGCT | 1.85 ± 0.83 | 0.832 ± 0.068 | 0.979 ± 0.43
GAGTCG | – | – | 0.621 ± 0.4
TCCTTG | – | 1.3 ± 0.69 | 3.06 ± 0.64
GCACTC | 0.672 ± 0.14 | 0.481 ± 0.091 | 2.2 ± 0.92
TTTACC | 1.47 ± 0.88 | 1.75 ± 0.022 | 2.36 ± 0.69
TTTCGC | 2.98 ± 0.12 | 3.83 ± 0.72 | 5.72 ± 2.5
CTCGCC | 4.36 ± 1.6 | 5.23 ± 1.7 | –
TGTCCG | – | 0.289 ± 0.26 | 1.41 ± 0.048
GTCTAC | 4.47 ± 0.65 | 6.86 ± 2.4 | 10.1 ± 4.8
CAAGTC | 0.799 ± 0.27 | 1.03 ± 0.39 | 1.21 ± 0.051
AGTCCC | 2.42 ± 0.049 | 2.36 ± 1.2 | 3.09 ± 1.6
CCCTTG | – | – | 1.42 ± 0.67
GGCCCA | 1.35 ± 0.049 | 0.697 ± 0.32 | 1.26 ± 0.18
CATGAA | 2.31 ± 0.97 | 2.74 ± 0.47 | 3.87 ± 1.4
ACTTCG | – | 0.314 ± 0.17 | 1.07 ± 0.038
AGTCGC | 2.42 ± 0.72 | 2.74 ± 0.56 | 4.61 ± 2.1
GGTTTA | 1.48 ± 0.69 | 1.5 ± 0.23 | 1.52 ± 0.42
TGGTCT | – | – | 0.817 ± 0.39
ACAACT | – | – | 1.07 ± 0.15
TCATTT | 3.58 ± 1.6 | 4.04 ± 0.4 | 6.04 ± 2.5
TGGTAC | – | 0.76 ± 0.74 | 0.612 ± 0.15
ATGAGT | 1.42 ± 0.72 | – | 0.564 ± 0.22

Sequence | relative kcat/Km [1] | relative kcat/Km [2] | relative kcat/Km [3]
CCTGTT | 1.06 ± 0.7 | – | 1.62 ± 0.7
GGGTAT | – | 1.13 ± 0.41 | 1.76 ± 1.6
CATTCA | 2.03 ± 0.96 | 2.26 ± 0.27 | 2.76 ± 0.83
TATATG | – | 0.979 ± 0.056 | 2.81 ± 0.6
TTACAA | 2.54 ± 2 | 2.85 ± 0.95 | 4.16 ± 1.8
TTTCTA | 2.15 ± 0.72 | 2.3 ± 0.57 | 2.89 ± 1.2
GCCACA | 2.03 ± 0.3 | 2.52 ± 0.9 | 4.01 ± 1.5
CGTTTA | 2.35 ± 0.28 | 3.11 ± 0.48 | 4.14 ± 1.4
ACACAT | 2.48 ± 1.5 | 3.18 ± 0.39 | 4.1 ± 1.6
AGACGG | – | 0.433 ± 0.39 | –
GCATCA | – | 1.3 ± 1.1 | 1.4 ± 0.13
ACCATC | 2.48 ± 0.84 | 2.51 ± 0.46 | 3.82 ± 0.76
TTGCTT | 1.5 ± 0.55 | 1.36 ± 0.26 | 2.15 ± 0.85
GAACAA | 1.26 ± 1.2 | 1.76 ± 0.95 | 2.38 ± 0.33
TGCAAT | 0.917 ± 0.7 | 1.18 ± 0.72 | 1.9 ± 0.94
TCTGTT | 1.56 ± 0.75 | 1.38 ± 1.1 | 1.89 ± 1.2
TATTAG | 2.38 ± 2.3 | 2.95 ± 0.03 | 4.43 ± 1.4
ACCATG | – | – | 1.58 ± 0.72
TCAAAA | 2.12 ± 1.1 | 1.64 ± 0.34 | 2.89 ± 1.2
TGTGAG | 1.35 ± 0.94 | – | 1.18 ± 0.15
AACCAG | – | 0.703 ± 0.2 | 2.58 ± 0.11
TTATCT | 2.77 ± 0.45 | 3.58 ± 0.95 | 5.02 ± 2.2
GGGTGC | 0.876 ± 0.24 | 0.837 ± 0.025 | 1.04 ± 0.35
TACCTT | 2.52 ± 0.33 | 3.78 ± 0.62 | 5.64 ± 2.6
GTCATG | – | 1.48 ± 0.37 | 3.5 ± 0.91
